Measurements: US20250270339A1 (Alector, published 2025)

Legend:
[1] = biological target: T1, Full length human TfR on CHO cells (human, UniProt P02786); test: FACS MFI
T1 construct: also called CHO + huTfR; CHO + hTfR

Cyno TfR ECD Avi-His = biological target: T2, Cyno TfR ECD Avi-His (cynomolgus macaque, UniProt Q5RDH6 89-760 (Pongo abelii entry), biotin on the Avi tag (BirA) where captured on streptavidin); test: ELISA OD450
T2 construct: also called Cyno TfR Avi-His; cyno TfR Avi-His
T2 chain: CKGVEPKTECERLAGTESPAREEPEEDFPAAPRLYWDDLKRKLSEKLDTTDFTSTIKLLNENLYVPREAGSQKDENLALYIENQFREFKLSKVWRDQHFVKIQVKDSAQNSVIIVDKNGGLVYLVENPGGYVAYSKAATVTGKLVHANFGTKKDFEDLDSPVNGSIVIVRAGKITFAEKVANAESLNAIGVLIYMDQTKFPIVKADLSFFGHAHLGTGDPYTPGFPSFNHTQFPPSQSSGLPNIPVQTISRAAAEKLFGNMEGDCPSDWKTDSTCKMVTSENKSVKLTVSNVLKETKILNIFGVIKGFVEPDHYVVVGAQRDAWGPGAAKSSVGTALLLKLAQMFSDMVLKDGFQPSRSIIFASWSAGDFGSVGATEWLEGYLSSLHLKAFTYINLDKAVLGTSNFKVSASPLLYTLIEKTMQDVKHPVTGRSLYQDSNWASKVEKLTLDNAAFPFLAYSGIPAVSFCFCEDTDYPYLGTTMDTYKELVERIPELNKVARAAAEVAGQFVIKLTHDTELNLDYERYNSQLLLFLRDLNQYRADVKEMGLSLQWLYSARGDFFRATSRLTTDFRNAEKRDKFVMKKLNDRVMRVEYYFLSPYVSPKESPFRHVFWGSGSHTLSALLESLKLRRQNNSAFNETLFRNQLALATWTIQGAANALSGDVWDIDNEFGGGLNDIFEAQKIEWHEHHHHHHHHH

[2] = biological target: T3, Mouse TfR (muTfR) ECD Avi-His (mouse, UniProt Q62351, biotin on the Avi tag (BirA) where captured on streptavidin); test: ELISA OD450
T3 construct: also called MuTfR Avi-His

[3] = biological target: T4, huTfR Apical Domain-Avi-His (human, biotin on the Avi tag (BirA) where captured on streptavidin); test: ELISA OD450
T4 construct: also called huTfR apical Avi-His; hTfR Apical
T4 chain: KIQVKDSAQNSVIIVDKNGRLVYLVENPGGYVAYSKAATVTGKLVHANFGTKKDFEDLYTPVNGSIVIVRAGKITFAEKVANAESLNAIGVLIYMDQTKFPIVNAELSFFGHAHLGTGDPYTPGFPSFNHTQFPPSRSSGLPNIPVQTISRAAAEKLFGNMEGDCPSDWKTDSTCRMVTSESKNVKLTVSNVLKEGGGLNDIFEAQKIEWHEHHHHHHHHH

T1 sequence (P02786 whole entry): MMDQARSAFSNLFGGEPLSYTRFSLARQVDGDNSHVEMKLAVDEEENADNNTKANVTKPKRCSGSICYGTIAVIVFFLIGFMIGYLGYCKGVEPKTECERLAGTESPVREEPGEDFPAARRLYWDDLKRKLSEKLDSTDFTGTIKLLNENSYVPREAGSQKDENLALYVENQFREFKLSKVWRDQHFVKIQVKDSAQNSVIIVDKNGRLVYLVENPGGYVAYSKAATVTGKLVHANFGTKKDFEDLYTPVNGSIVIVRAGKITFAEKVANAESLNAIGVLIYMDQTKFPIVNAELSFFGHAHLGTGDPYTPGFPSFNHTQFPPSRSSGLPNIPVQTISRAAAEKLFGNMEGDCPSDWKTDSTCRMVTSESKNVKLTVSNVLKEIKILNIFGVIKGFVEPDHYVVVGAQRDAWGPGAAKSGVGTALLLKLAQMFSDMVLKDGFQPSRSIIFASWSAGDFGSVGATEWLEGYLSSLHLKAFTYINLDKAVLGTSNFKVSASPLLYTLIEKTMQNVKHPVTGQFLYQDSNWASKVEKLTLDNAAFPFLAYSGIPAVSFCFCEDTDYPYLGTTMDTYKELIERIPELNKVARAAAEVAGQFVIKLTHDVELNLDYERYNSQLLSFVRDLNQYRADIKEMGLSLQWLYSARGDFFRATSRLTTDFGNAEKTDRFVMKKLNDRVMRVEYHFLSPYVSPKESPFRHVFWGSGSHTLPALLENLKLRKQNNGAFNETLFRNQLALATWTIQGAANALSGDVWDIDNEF

B1: TfR6 2+1 anti-TfR bispecific antibody (bispecific antibody, human IgG1, kappa)
heavy 1: EVRLLESGGGLVQPGGSLRLSCAASGFTFSNYAMGWVRQAPGKGLEWVSAISGSGGSTYYADSVKGRFTTSRDDSKNALYLQMNSLRAEDTAVYYCARGGPGWYAADVWGQGTTVTVSSASTKGPSVFPLAPSSKSTSGGTAALGCLVKDYFPEPVTVSWNSGALTSGVHTFPAVLQSSGLYSLSSVVTVPSSSLGTQTYICNVNHKPSNTKVDKKV[here human IgG1 Fc with changes without letters]GGGGSGGGGSGGGGSDVQLVESGGGLVQPGGSRKLSCAASGFTFSSFGMHWVRQAPEKGLEWVAYISSGSSAIYYADTVKGRFTVSRDNPKNTLFLQMTSLRSEDTAIYYCATSYVYDPPWFAYWGQGTLVTVSAGGSEGKSSGSGSESKSTGGSDIVMTQSHKFMSTSVGDRVSITCKASQDVSTAVAWYQQKPGQSPKLLIYWASTRPTGVPDRFTGSGSGTDYTLTISSVQAEDLALYSCQQHFSTPWTFGGGTKLEIK
heavy 2: EVRLLESGGGLVQPGGSLRLSCAASGFTFSNYAMGWVRQAPGKGLEWVSAISGSGGSTYYADSVKGRFTTSRDDSKNALYLQMNSLRAEDTAVYYCARGGPGWYAADVWGQGTTVTVSS[here human IgG1 constant region with changes without letters]
light: DIQMTQSPSSLSASVGDRVTITCRASQSISSYLNWYQQKPGKAPKLLIYAASSLQSGVPSRFSGSGSGTDFTLTISSLQPEDFATYYCQQADLPAFAFGGGTKVEIKRTVAAPSVFIFPPSDEQLKSGTASVVCLLNNFYPREAKVQWKVDNALQSGNSQESVTEQDSKDSTYSLSSTLTLSKADYEKHKVYACEVTHQGLSSPVTKSFNRGEC
notes: 2+1
- fold over CHO parental [1]: 19 fold
- fold over isotype control (Cyno TfR ECD Avi-His): 21 fold
- fold over isotype control [2]: 1 fold
- fold over isotype control [3]: 1 fold

B2: TfR7 2+1 anti-TfR bispecific antibody (bispecific antibody, human IgG1, kappa)
heavy 1: EVRLLESGGGLVQPGGSLRLSCAASGFTFSNYAMGWVRQAPGKGLEWVSAISGSGGSTYYADSVKGRFTTSRDDSKNALYLQMNSLRAEDTAVYYCARGGPGWYAADVWGQGTTVTVSSASTKGPSVFPLAPSSKSTSGGTAALGCLVKDYFPEPVTVSWNSGALTSGVHTFPAVLQSSGLYSLSSVVTVPSSSLGTQTYICNVNHKPSNTKVDKKV[here human IgG1 Fc with changes without letters]GGGGSGGGGSGGGGSDVQLQESGPGLVKPSQSLSLTCTVTGYSITSDYAWNWLRQFPGNKLEWMGYISYSGYSRHNPSLKSRISITRDTSKNQFFLQLNSVTSEDTATYYCARGDWDFDYWGQGTTLTVSSGGSEGKSSGSGSESKSTGGSDIVMTQSQKFMSTSVGDRVSVTCKASQNVLTNVAWYQQKPGHSPKALIYSSSSRNSGVPDRFTGSGSGTDFTLTISNVQSEDLAEYFCQQYNTYPYTFGGGTKLEIK
heavy 2: EVRLLESGGGLVQPGGSLRLSCAASGFTFSNYAMGWVRQAPGKGLEWVSAISGSGGSTYYADSVKGRFTTSRDDSKNALYLQMNSLRAEDTAVYYCARGGPGWYAADVWGQGTTVTVSS[here human IgG1 constant region with changes without letters]
light: DIQMTQSPSSLSASVGDRVTITCRASQSISSYLNWYQQKPGKAPKLLIYAASSLQSGVPSRFSGSGSGTDFTLTISSLQPEDFATYYCQQADLPAFAFGGGTKVEIKRTVAAPSVFIFPPSDEQLKSGTASVVCLLNNFYPREAKVQWKVDNALQSGNSQESVTEQDSKDSTYSLSSTLTLSKADYEKHKVYACEVTHQGLSSPVTKSFNRGEC
notes: 2+1
- fold over CHO parental [1]: 314 fold
- fold over isotype control (Cyno TfR ECD Avi-His): 1 fold
- fold over isotype control [2]: 1 fold
- fold over isotype control [3]: 45 fold

B3: TfR9 2+1 anti-TfR bispecific antibody (bispecific antibody, human IgG1, kappa)
heavy 1: EVRLLESGGGLVQPGGSLRLSCAASGFTFSNYAMGWVRQAPGKGLEWVSAISGSGGSTYYADSVKGRFTTSRDDSKNALYLQMNSLRAEDTAVYYCARGGPGWYAADVWGQGTTVTVSSASTKGPSVFPLAPSSKSTSGGTAALGCLVKDYFPEPVTVSWNSGALTSGVHTFPAVLQSSGLYSLSSVVTVPSSSLGTQTYICNVNHKPSNTKVDKKV[here human IgG1 Fc with changes without letters]GGGGSGGGGSGGGGSEVQLQQSGPELVKPGASVKISCKTSGYTFTEYAMHWVKQSHGKSLEWIGGINPNDGGTSYNQKFKGKATLTVDKSSSTAYMELRSLTSEDSAVYYCSSQRWLLRGGDYWGQGTTLTVSSGGSEGKSSGSGSESKSTGGSDVVMTQTPLTLSVTIGQPASISCKSSQSLLDSDGKTYLNWLLQRPGQSPKRLIYLVSKLDSGVPDRFTGSGSGTDFTLKISRVEAEDLGVYYCWQGTHFPQTFGGGTKLEIK
heavy 2: EVRLLESGGGLVQPGGSLRLSCAASGFTFSNYAMGWVRQAPGKGLEWVSAISGSGGSTYYADSVKGRFTTSRDDSKNALYLQMNSLRAEDTAVYYCARGGPGWYAADVWGQGTTVTVSS[here human IgG1 constant region with changes without letters]
light: DIQMTQSPSSLSASVGDRVTITCRASQSISSYLNWYQQKPGKAPKLLIYAASSLQSGVPSRFSGSGSGTDFTLTISSLQPEDFATYYCQQADLPAFAFGGGTKVEIKRTVAAPSVFIFPPSDEQLKSGTASVVCLLNNFYPREAKVQWKVDNALQSGNSQESVTEQDSKDSTYSLSSTLTLSKADYEKHKVYACEVTHQGLSSPVTKSFNRGEC
notes: 2+1; also called parental TfR9 scFv
- fold over CHO parental [1]: 62 fold
- fold over isotype control (Cyno TfR ECD Avi-His): 10 fold
- fold over isotype control [2]: 1 fold
- fold over isotype control [3]: 26 fold

B4: TfR11 2+1 anti-TfR bispecific antibody (bispecific antibody, human IgG1, kappa)
heavy 1: EVRLLESGGGLVQPGGSLRLSCAASGFTFSNYAMGWVRQAPGKGLEWVSAISGSGGSTYYADSVKGRFTTSRDDSKNALYLQMNSLRAEDTAVYYCARGGPGWYAADVWGQGTTVTVSSASTKGPSVFPLAPSSKSTSGGTAALGCLVKDYFPEPVTVSWNSGALTSGVHTFPAVLQSSGLYSLSSVVTVPSSSLGTQTYICNVNHKPSNTKVDKKV[here human IgG1 Fc with changes without letters]GGGGSGGGGSGGGGSEVQLQQSGTVLARPGASVKMSCKASGYSFTSYWMHWVKQRPGQGLEWIGAIFPGNIDTIYNQKFKDKAKLTAVTSASTAYMELSSLTNEDSAVYFCTRLYYDYVWGAGTTVTVSSGGSEGKSSGSGSESKSTGGSDIKMTQSPSSMYASLGERVTLTCKASQDINSYLSWFQQKPGKSPKTLIYHVNRLVDGVPSRFSGSGSGQDYSLTISSLEYEDMGIYYCLQYDEFPYTFGGGTKLEIK
heavy 2: EVRLLESGGGLVQPGGSLRLSCAASGFTFSNYAMGWVRQAPGKGLEWVSAISGSGGSTYYADSVKGRFTTSRDDSKNALYLQMNSLRAEDTAVYYCARGGPGWYAADVWGQGTTVTVSS[here human IgG1 constant region with changes without letters]
light: DIQMTQSPSSLSASVGDRVTITCRASQSISSYLNWYQQKPGKAPKLLIYAASSLQSGVPSRFSGSGSGTDFTLTISSLQPEDFATYYCQQADLPAFAFGGGTKVEIKRTVAAPSVFIFPPSDEQLKSGTASVVCLLNNFYPREAKVQWKVDNALQSGNSQESVTEQDSKDSTYSLSSTLTLSKADYEKHKVYACEVTHQGLSSPVTKSFNRGEC
notes: 2+1
- fold over CHO parental [1]: 107 fold
- fold over isotype control (Cyno TfR ECD Avi-His): 4 fold
- fold over isotype control [2]: 1 fold
- fold over isotype control [3]: 44 fold
